Test results taken from PMC4326527.
Changes are numbered by the printed parent chain. No constants are given. Whether binding was seen depends on the method and setting. Some binding calls cover weakened binding; strength is not graded here. For some assays here: Sequences can lack the tags named with a protein.

Sequences of proteins named here, by UniProt entry; tags and fusion partners are left off. A change or cut given only in a name is not applied to a line headed by its entry. A line that says so, or that is headed by a name, gives the form on record, which may keep a tag or linker.
USP46 amino-terminal fragment (1–164) in pNLS(SV40)-GFP (P62068, form named): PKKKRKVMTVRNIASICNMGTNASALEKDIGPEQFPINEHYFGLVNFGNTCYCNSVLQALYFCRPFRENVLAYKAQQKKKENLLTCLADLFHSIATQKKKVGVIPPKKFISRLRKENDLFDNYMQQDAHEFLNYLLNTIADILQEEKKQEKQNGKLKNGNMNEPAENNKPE
USP46 carboxy-terminal fragment (243–366) in pNLS(SV40)-GFP (P62068, form named): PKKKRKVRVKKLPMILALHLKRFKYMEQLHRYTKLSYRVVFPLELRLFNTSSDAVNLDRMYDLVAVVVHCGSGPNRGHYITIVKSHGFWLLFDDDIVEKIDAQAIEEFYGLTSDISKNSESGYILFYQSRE
UniProt Q8TAF3: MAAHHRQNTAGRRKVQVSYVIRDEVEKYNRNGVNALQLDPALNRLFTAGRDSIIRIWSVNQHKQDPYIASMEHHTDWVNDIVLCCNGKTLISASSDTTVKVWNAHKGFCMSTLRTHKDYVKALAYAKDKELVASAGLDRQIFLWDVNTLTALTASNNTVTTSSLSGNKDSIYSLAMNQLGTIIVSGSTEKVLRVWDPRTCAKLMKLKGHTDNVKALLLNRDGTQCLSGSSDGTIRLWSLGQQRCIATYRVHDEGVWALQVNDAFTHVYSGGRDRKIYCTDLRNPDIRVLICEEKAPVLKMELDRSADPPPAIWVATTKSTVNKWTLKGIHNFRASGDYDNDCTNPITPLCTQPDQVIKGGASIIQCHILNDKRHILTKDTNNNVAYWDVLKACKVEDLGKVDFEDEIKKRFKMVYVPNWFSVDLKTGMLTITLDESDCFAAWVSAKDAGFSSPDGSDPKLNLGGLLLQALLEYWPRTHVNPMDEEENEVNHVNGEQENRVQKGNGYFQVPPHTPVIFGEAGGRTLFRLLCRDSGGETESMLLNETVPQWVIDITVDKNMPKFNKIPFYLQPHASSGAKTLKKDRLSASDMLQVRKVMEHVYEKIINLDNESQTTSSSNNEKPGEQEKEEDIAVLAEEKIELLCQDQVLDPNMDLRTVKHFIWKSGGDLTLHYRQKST

Columns and labels:
Experiment in all cases: nuclear relocation assay; 293T cells co-transfected with UAF1-mRFP and a GFP- or YFP-tagged nuclear DUB variant; nuclear accumulation of UAF1-mRFP seen by confocal microscopy in fixed cells (live cells too for USP1 WT, S313A, S313D; also after USP1 siRNA)
GFP-USP1^K673T (human) = target: T1, GFP-USP1^K673T (human) (UniProt O94782)
T1 sequence: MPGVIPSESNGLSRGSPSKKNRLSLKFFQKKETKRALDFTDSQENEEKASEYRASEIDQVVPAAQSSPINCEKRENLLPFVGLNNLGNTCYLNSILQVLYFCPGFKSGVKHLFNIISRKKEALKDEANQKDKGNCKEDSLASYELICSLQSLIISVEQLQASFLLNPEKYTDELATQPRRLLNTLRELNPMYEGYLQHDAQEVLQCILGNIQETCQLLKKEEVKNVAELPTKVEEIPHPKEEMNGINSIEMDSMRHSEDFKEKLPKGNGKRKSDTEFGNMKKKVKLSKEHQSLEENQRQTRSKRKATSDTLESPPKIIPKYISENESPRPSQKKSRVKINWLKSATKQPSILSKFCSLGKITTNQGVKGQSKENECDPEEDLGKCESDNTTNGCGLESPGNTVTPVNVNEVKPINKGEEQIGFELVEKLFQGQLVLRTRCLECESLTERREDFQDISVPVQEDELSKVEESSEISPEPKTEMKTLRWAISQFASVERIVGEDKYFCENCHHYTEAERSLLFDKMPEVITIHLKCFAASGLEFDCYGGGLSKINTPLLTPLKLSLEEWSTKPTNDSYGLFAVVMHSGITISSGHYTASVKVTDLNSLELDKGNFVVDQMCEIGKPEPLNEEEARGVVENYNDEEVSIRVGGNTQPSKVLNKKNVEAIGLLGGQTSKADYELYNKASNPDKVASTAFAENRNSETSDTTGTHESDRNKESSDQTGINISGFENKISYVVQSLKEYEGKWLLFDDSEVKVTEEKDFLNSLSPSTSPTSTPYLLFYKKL

GFP-USP1^L669P (human) = target: T2, GFP-USP1^L669P (human) (UniProt O94782)
T2 sequence: T1 sequence with L669P, T673K

GFP-USP1^S313A (human) = target: T3, GFP-USP1^S313A (human) (UniProt O94782)
T3 sequence: T1 sequence with S313A, T673K

[1] = target: USP46 amino-terminal fragment (1–164) in pNLS(SV40)-GFP (Simian virus 40 | not stated) (UniProt P62068)
[2] = target: USP46 carboxy-terminal fragment (243–366) in pNLS(SV40)-GFP (Simian virus 40 | not stated) (UniProt P62068)

Substance: UAF1-mRFP (from UniProt Q8TAF3 1-677)
- binding (GFP-USP1^K673T (human)): binds
- binding (GFP-USP1^L669P (human)): binds
- binding (GFP-USP1^S313A (human)): binds
- binding [1]: no binding
- binding [2]: no binding
